T1: CCR6 (UniProt P51684 1-374, limits assumed)
T1 sequence (looked up): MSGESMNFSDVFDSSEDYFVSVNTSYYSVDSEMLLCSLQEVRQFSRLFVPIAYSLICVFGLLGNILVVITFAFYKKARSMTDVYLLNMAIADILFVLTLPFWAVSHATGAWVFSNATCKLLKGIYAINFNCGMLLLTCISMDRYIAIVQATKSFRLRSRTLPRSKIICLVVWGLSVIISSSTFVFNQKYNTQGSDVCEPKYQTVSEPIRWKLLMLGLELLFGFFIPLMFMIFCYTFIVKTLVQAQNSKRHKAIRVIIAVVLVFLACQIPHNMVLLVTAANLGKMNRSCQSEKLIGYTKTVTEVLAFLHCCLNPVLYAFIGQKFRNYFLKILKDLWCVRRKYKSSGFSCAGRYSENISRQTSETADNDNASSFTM

B1: CCL20 WT (ligand)
chain: not shown
notes: also called wild-type CCL20; wild type CCL20
B2: CCL20 S64C locked dimer (ligand)
chain: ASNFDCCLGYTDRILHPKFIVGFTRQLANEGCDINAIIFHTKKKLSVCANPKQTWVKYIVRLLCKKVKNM
modifications: intermolecular disulfide bond between Cys 64 of the two monomers
notes: also called CCL20LD; CCL20 locked dimer

Biological target: T1, CCR6
Experiment: cell-based or functional assay

| 3H-IP3 accumulation in CCR6+ COS-7 cells, logEC50 | CCR6+ Jurkat cell calcium flux EC50 | CCR6+ Jurkat cell migration EC50 | beta-arrestin-2 recruitment to CCR6 in U2OS cells, logEC50 | beta-arrestin-2 recruitment to CCR6 in transfected U2OS cells, EC50 | intracellular calcium release in CCR6+ Jurkat cells, EC50 | intracellular calcium release in CCR6+ Jurkat cells, logEC50 | Binder |
| --- | --- | --- | --- | --- | --- | --- | --- |
| -9.37 | 76 nM | ~15 nM | -8.95 | 1.1 nM | 75 nM | -7.12 | B1 |
| -7.38 | 700 nM |  | -7.07 | 86.2 nM | 715 nM | -6.14 | B2 |

Source: US20200360479A1 (MEDICAL COLLEGE OF WISCONSIN, published 2020)
